{
  "source": "paper PMC7819943",
  "about": "“Rice protein-binding microarrays: a tool to detect cis-acting elements near promoter regions in rice”",
  "note": "The other results are listed elsewhere or left out.",
  "data": [
    {"molecular_target": "T1, OsWOX13 (Oryza sativa, UniProt Q5QMM3 1-267)", "T1 sequence": "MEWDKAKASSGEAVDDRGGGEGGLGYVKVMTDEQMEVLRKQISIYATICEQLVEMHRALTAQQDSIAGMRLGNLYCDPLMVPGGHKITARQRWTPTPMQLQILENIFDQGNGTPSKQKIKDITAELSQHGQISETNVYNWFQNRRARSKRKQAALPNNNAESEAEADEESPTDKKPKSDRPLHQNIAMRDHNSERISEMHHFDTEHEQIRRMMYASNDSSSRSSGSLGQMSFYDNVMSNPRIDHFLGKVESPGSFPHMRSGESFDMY", "test": "protein-binding microarray (RPBM); PBS, 2% BSA, 51.3 ng/ul salmon testes DNA, 50 uM zinc acetate, 200 nM TF, 25 C, 1 h; high values mean tight binding", "details": "protein: recombinant; tags: N-terminal polyhistidine and DsRed monomer fusion (pET32a); label: CyDye5-dUTP incorporated in the synthesized complementary strand; 3' TTTTT single-stranded linker to array surface; dsDNA, one strand shown", "method_in_brief": "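Polyhistidine-tagged DsRed fusions of transcription factors, joined at the N-terminus, were expressed in E. coli BL21-CodonPlus and isolated on Ni–NTA. They were incubated at 200 nM for 1 h at 25 °C on a custom Agilent array, double-stranded and BSA-blocked, in PBS with 2% BSA, salmon testes DNA and 50 µM zinc acetate. The binding signal is per-feature fluorescence intensity (arbitrary units) read on an Axon 4000B scanner after washing.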", "values": [
      {"sequence": "AATTTAAATATTAAAGTCTTAATTTTAGAGTTAATTCGACCGGAGTCACCTAGTGCAG", "binding signal": "4300 fluorescence intensity (a.u.)"},
      {"sequence": "CTAAAATTGAAAGTTTGGTTAAAATTGAAACGATGTGACGCGGAGTCACCTAGTGCAG", "binding signal": "25300 fluorescence intensity (a.u.)"},
      {"sequence": "CTTTAATTTTATTAATTTGCAGTCCAAATAGTAGTAAAACCGGAGTCACCTAGTGCAG", "binding signal": "21300 fluorescence intensity (a.u.)"},
      {"sequence": "AGCTACGCTCATTAATCCTAATTACCGCTTATAATAATGTCGGAGTCACCTAGTGCAG", "binding signal": "3260 fluorescence intensity (a.u.)"},
      {"sequence": "ATTAAATTGTCAGTTTGTATACCTCGGCTGATTTCTGGACCGGAGTCACCTAGTGCAG", "binding signal": "33400 fluorescence intensity (a.u.)"},
      {"sequence": "GCGAAGATGATTGAAGCACTCGGCTTTGGAGTAATCTAGTCGGAGTCACCTAGTGCAG", "binding signal": "33400 fluorescence intensity (a.u.)"},
      {"sequence": "GCAAACTATTGTGATTGGCATAACTTTCCTTGCATTCCTTCGGAGTCACCTAGTGCAG", "binding signal": "40800 fluorescence intensity (a.u.)"},
      {"sequence": "CCCAAATTAAACTTCATACATACAAACTTTATGTATATAACGGAGTCACCTAGTGCAG", "binding signal": "6720 fluorescence intensity (a.u.)"},
      {"sequence": "ATTTGTCATCCCTTAATTATTTTCCAAGGATAGTAGTTGGCGGAGTCACCTAGTGCAG", "binding signal": "4640 fluorescence intensity (a.u.)"},
      {"sequence": "TACAAATAATAATGATTGTATTAACAAAGATATCTGGTGACGGAGTCACCTAGTGCAG", "binding signal": "3790 fluorescence intensity (a.u.)"},
      {"sequence": "CCTCGTCATTAGTCACTTAATTATAATGCTTTAAAAGAGTCGGAGTCACCTAGTGCAG", "binding signal": "13100 fluorescence intensity (a.u.)"},
      {"sequence": "GTCCATGATTAGCCATAAGTGCTACAGTAATCCACATGTGCGGAGTCACCTAGTGCAG", "binding signal": "32100 fluorescence intensity (a.u.)"},
      {"sequence": "GCATTTGGATTGAATTGTCAATACCATAAAAGGAGATGATCGGAGTCACCTAGTGCAG", "binding signal": "12700 fluorescence intensity (a.u.)"},
      {"sequence": "ATTTAACTGTATAAACAATTAATAACAAGAATTGTGTATACGGAGTCACCTAGTGCAG", "binding signal": "16100 fluorescence intensity (a.u.)"},
      {"sequence": "TCGAAAGTAATTAGTACTAGATTGATTGTCAGTTCAGTCTCGGAGTCACCTAGTGCAG", "binding signal": "53100 fluorescence intensity (a.u.)"},
      {"sequence": "AAATTTTATTTATAAATTATCTTCCCTTCACAAATATGTTCGGAGTCACCTAGTGCAG", "binding signal": "5040 fluorescence intensity (a.u.)"},
      {"sequence": "CAATAATTTACCTTATTTAGAACAATTCGCATCGTACTTTCGGAGTCACCTAGTGCAG", "binding signal": "9930 fluorescence intensity (a.u.)"},
      {"sequence": "GTGTGATGAACTCAAAACACAATCAAGTATACTTGTGTGACGGAGTCACCTAGTGCAG", "binding signal": "5600 fluorescence intensity (a.u.)"},
      {"sequence": "ATCTTATCGTACTAATTTATCTTAATACAGTGTAATAAACCGGAGTCACCTAGTGCAG", "binding signal": "4030 fluorescence intensity (a.u.)"},
      {"sequence": "TACACTATAATTACATGCTATTTACATATGTAATTTTAGACGGAGTCACCTAGTGCAG", "binding signal": "7070 fluorescence intensity (a.u.)"},
      {"sequence": "TCATAACTAATATTTAAATGGTATTTGAACATCCCATGGACGGAGTCACCTAGTGCAG", "binding signal": "9720 fluorescence intensity (a.u.)"},
      {"sequence": "CACAAGATAATGATTGGTGATAAACTCTTGTGCATCCAAACGGAGTCACCTAGTGCAG", "binding signal": "28100 fluorescence intensity (a.u.)"},
      {"sequence": "CCTACGAATGTCCTTAATTAGTGAGGACACTTTAGAAGTGCGGAGTCACCTAGTGCAG", "binding signal": "4430 fluorescence intensity (a.u.)"},
      {"sequence": "ACGTTATTTATTGTTTTAGGTTCAATCTACGAGTTTCTTTCGGAGTCACCTAGTGCAG", "binding signal": "3350 fluorescence intensity (a.u.)"},
      {"sequence": "ACCCCTTAATTCTTAAAATTTTAAGCTCTTCGAAATAGTTCGGAGTCACCTAGTGCAG", "binding signal": "4080 fluorescence intensity (a.u.)"},
      {"sequence": "CCTGACCCCACCAATCAGAGCATTTCCCGCGCAATACACACGGAGTCACCTAGTGCAG", "binding signal": "5860 fluorescence intensity (a.u.)"},
      {"sequence": "TAAGCTAATTGGTGAAAATATTTTGACTTTTAGTTTATTTCGGAGTCACCTAGTGCAG", "binding signal": "20600 fluorescence intensity (a.u.)"},
      {"sequence": "ATTAATGAATCTAGATAGATATATATGTCTAGATTTATTACGGAGTCACCTAGTGCAG", "binding signal": "7480 fluorescence intensity (a.u.)"},
      {"sequence": "ATCAATTAGCATAAATTCATTGATGACTTTCGGTGCAAAGCGGAGTCACCTAGTGCAG", "binding signal": "13700 fluorescence intensity (a.u.)"},
      {"sequence": "ATAGATTATCTTATATATTATAATAAGATTTCATGGTAAGCGGAGTCACCTAGTGCAG", "binding signal": "11800 fluorescence intensity (a.u.)"},
      {"sequence": "ATCAGATTTATTGTATTTATTTCTCTTTATTTCTCCACATCGGAGTCACCTAGTGCAG", "binding signal": "4710 fluorescence intensity (a.u.)"},
      {"sequence": "TTTAATTTATTTCCTCATTATATTAATATTAAAACTGAGTCGGAGTCACCTAGTGCAG", "binding signal": "33700 fluorescence intensity (a.u.)"},
      {"sequence": "CTGAAAACGATTGCAAAATTGACTCGAGTAGTTTTGTATGCGGAGTCACCTAGTGCAG", "binding signal": "7400 fluorescence intensity (a.u.)"},
      {"sequence": "ATGCTAGCAATGCTGATTGGCCCCGTCAAGCAAGTGACACCGGAGTCACCTAGTGCAG", "binding signal": "13800 fluorescence intensity (a.u.)"},
      {"sequence": "AATTAATTAATCTGAATGCTCTTTACACACGAGATGTCTGCGGAGTCACCTAGTGCAG", "binding signal": "31000 fluorescence intensity (a.u.)"},
      {"sequence": "CCAAATTTTGAGTATTATTAACTCAAATTTTAAACCACATCGGAGTCACCTAGTGCAG", "binding signal": "5680 fluorescence intensity (a.u.)"},
      {"sequence": "GTTTGTTGATGTTATTTCTTGGATTGAGGCGTTTGTCAATCGGAGTCACCTAGTGCAG", "binding signal": "4770 fluorescence intensity (a.u.)"},
      {"sequence": "TTGTCAATTTGCCACCAGCGTCAAATGTTTGTCCATGACCCGGAGTCACCTAGTGCAG", "binding signal": "3740 fluorescence intensity (a.u.)"},
      {"sequence": "AAGTTGACGAGGCTTGTGAATGATCGGCTTCTGGAAAGCGCGGAGTCACCTAGTGCAG", "binding signal": "6330 fluorescence intensity (a.u.)"},
      {"sequence": "ATGTGATTGCGAATTGTGACCAGGAATGCATGATTTAACACGGAGTCACCTAGTGCAG", "binding signal": "22200 fluorescence intensity (a.u.)"},
      {"sequence": "CAAACTTCTAATTTTAACGTAAGTTAAACACTCCCCAAGTCGGAGTCACCTAGTGCAG", "binding signal": "3610 fluorescence intensity (a.u.)"},
      {"sequence": "AAAATTGAGTAGATAACTTACGACGATAATCCAAATCAAACGGAGTCACCTAGTGCAG", "binding signal": "5580 fluorescence intensity (a.u.)"}
    ]}
  ]
}
